# According to article PMC4336329 (PLoS ONE, 2015):
# Out of some 310,000 compounds screened, about 14,000 (4.5%) showed an effect of 50% or more. Effects have a minus sign here. The list shows a part of the results.
# Target: human ether-à-go-go-related gene (hERG) potassium channel (human, UniProt Q12809)
# Assay: primary screen, population patch clamp on CHO cells stably expressing hERG
# 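Note: peak tail current of the secondary pulse compared with the same well before compound.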
# Chain of human ether-à-go-go-related gene (hERG) potassium channel (Q12809 whole entry, looked up): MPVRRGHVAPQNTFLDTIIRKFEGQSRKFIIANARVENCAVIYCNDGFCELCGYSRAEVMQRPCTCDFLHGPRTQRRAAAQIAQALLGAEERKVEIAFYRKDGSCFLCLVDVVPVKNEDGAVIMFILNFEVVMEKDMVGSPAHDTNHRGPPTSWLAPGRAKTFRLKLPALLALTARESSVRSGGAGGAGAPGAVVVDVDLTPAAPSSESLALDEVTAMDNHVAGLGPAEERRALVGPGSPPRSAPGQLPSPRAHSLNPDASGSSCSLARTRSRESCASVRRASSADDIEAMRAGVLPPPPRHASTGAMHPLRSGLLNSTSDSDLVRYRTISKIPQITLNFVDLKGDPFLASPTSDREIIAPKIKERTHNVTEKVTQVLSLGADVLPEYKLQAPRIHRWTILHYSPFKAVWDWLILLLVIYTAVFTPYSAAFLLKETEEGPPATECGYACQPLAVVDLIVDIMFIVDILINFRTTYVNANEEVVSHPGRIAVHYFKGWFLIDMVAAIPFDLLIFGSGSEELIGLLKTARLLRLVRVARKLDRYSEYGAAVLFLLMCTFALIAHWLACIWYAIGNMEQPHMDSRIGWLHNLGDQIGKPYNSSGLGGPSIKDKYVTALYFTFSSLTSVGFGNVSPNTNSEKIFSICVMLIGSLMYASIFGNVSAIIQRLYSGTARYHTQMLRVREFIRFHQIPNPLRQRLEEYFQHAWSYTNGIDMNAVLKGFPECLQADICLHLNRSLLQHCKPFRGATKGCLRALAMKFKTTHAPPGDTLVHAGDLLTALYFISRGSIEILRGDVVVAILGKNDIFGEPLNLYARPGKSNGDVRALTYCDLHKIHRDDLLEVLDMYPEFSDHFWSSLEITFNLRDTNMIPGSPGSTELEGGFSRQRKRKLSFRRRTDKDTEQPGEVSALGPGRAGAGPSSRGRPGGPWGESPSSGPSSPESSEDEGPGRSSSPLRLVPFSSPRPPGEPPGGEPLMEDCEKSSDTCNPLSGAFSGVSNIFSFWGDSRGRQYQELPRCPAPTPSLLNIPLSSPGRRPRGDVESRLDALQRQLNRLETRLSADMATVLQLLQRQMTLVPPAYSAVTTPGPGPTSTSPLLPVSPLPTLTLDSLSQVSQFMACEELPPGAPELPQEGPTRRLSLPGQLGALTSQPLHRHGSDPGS
row,Compound,"hERG current change (%, negative = inhibition) at 10uM [%]"
1,Cc1scc(C(=O)NNC(=S)NCc2ccccc2)c1C,3.71
2,O=C(O)C1CCCN1C(=O)OCc1ccccc1 (stereo not shown),-12
3,O=C(NC1CC(=O)N(c2ccc3c(c2)OCCO3)C1)N1CCCCC1 (stereo not shown),12.4
4,COc1ccc(C(=O)N2CCOCC2)cc1Br,25.3
5,O=C1CC(C(=O)N2CCN(Cc3ccccc3)CC2)CN1Cc1ccccc1 (stereo not shown),-39.7
6,CN(C1CCS(=O)(=O)C1)S(=O)(=O)c1ccc(C2CCCCC2)cc1 (stereo not shown),6.87
7,CCCN(CCC)CCCNC(=O)c1ccc(CS(=O)(=O)c2c(Cl)cccc2Cl)o1,-73.1
8,CN(C)c1ccc(C(=O)OCC(=O)NCCCc2ccccc2)cc1,-9.09
9,CC(=O)c1c(N2CCN(Cc3ccccc3)CC2)[nH]c(-c2ccccc2)nc1=S,2.17
10,Cc1ccccc1OCc1nnc(SCc2cc(=O)[nH]c3ccccc23)o1,7.77
11,CCCCc1ccc(NS(=O)(=O)c2cccc(C(=O)N3CCCN(C)CC3)c2)cc1,-35.2
12,CC(C)(C)C1CCc2c(sc3ncn(N)c(=N)c23)C1 (stereo not shown),-41.5
13,CN(C)CCCSc1nc2ccccc2s1.Cl,7.45
14,COc1ccc(N2C(=S)NC3CS(=O)(=O)CC32)cc1 (stereo not shown),6.44
15,COc1ccc(CNC(=O)CCSc2ccc(F)cc2)cc1OC,-10.2
16,Oc1ccc(CNc2ccccc2)c2cccnc12,21.4
17,O=C(CCC(=O)c1ccc(F)cc1)Nc1cc(Cl)cc(Cl)c1,16.1
18,CCc1cc(=O)oc2cc(C)cc(OCC(=O)NCc3ccncc3)c12,-54.8
19,Cc1nn(-c2ccccc2)c(Cl)c1/C=N/NC(=O)OC(C)(C)C,1.2
20,O=C1C2CC=CCC2C(=O)N1c1n[nH]c(CCc2ccccc2)n1 (stereo not shown),6.91

row,Compound,"hERG current change (%, negative = inhibition) at 10uM [%]"
1,Cc1nn(C)c(C)c1S(=O)(=O)N(CC(=O)NCCCN1CCC(C)CC1)c1ccc(C(C)C)cc1,-64.7
2,Cc1ccc(C)c(N2CCN(S(=O)(=O)c3ccc4[nH]c(=O)ccc4c3)CC2)c1,7.7
3,Cc1ccc(OCC(=O)NC2=NCCS2)cc1,21.5
4,O=C(CCl)Nc1ccc(-c2ccccc2)cc1,17.4
5,COc1ccc(Oc2c(C)nc(SCC(=O)c3ccc(Cl)cc3)[nH]c2=O)cc1,15.6
6,CCC(=NCc1cccnc1)c1c(O)n(-c2ccccc2C)c(=O)[nH]c1=O,8.87
7,O=C(O)CC1(CC(=O)Nc2ccccc2C(=O)c2ccccc2)CCCC1,22.8
8,CC(C)CCP(=O)(O)c1ccccc1,-0.142
9,COc1ccc(CNc2ncnc(N)n2)cc1.Cl,3.14
10,CCOC(=O)c1ccc(NC(=O)NC(C)C2CCCO2)cc1 (stereo not shown),-9.61
11,Cc1c(NC(=O)c2cc(-n3cnnc3)ccc2Cl)cccc1-c1nc2ccccc2s1,-21.8
12,CC(C)(C)c1ccc(C(=O)Cn2nc(C(=O)O)c3ccccc3c2=O)cc1,-6.48
13,O=C(CSc1nnc(C2COc3ccccc3O2)o1)N1CCCCC1 (stereo not shown),-6.59
14,Cc1cc(NC(=O)CCCC(=O)N(CC(=O)NCCc2ccccc2)Cc2ccc(F)cc2)no1,-39.8
15,Cn1nnnc1SCc1nc2scc(-c3ccc(Cl)cc3)c2c(=O)[nH]1,-11.1
16,O=C(Oc1ccccc1F)C1CCN(C(=O)c2ccc(F)cc2)CC1,-7.7
17,O=C([O-])CCSc1ccc2ccccc2n1.[Na+],12.6
18,Cl.NCCCCCC(=O)Nc1ccncc1,15.3
19,O=S(=O)(c1ccc(F)c(F)c1)N1CCN(CCc2ccccc2)CC1,-2.71
20,COc1cccc(OCCOCCN(C)CCO)c1,8.06

row,Compound,"hERG current change (%, negative = inhibition) at 10uM [%]"
1,COc1ccc(CNC(=O)C/C(C)=N/NC(=O)COc2cccc(C)c2)cc1,-18.7
2,CCOC(=O)C1=C(N)OC2=C(C(=O)CC(C)(C)C2)C1c1ccccc1OC (stereo not shown),14.7
3,COc1cc(/C=N/NC(=O)C23CC4CC(CC(C4)C2)C3)cc(Br)c1O,-5.77
4,Cc1cc(NS(=O)(=O)c2ccc(NC(=O)Cc3ccccc3)cc2)nc(C)n1,10.5
5,COc1ccc(C(=O)N(Cc2cccs2)C2CCS(=O)(=O)C2)cc1 (stereo not shown),14.2
6,Cc1ccccc1C(=O)NC1CCN(C(=O)Nc2ccc(F)cc2)CC1,-13.8
7,CCC(=O)NC(=S)Nc1cccc(NC(=O)c2ccco2)c1,11.3
8,O=C(Nc1cccc(-c2nnc(-c3ccco3)o2)c1)C(c1ccccc1)c1ccccc1,16.9
9,CS(=O)(=O)c1cccc(C(=O)Nc2ccc3c(c2)OCCCO3)c1,11.6
10,Cc1cccc(NC(=O)c2cccc(N3C(=O)C4CCC(C)CC4C3=O)c2)c1C (stereo not shown),-1.92
11,Cc1cc(C)cc(C(=O)NC(CC(N)=O)c2ccc(N3CCCCCC3)c([N+](=O)[O-])c2)c1 (stereo not shown),13.5
12,C/C=C(\C)C(=O)NCCN1C2=NC[C@H](C(C)C)N2C[C@H]1Cc1ccc(O)cc1,23.1
13,Cc1cc(N2CCCC2)n2nc(C)nc2n1,-11.8
14,O=C(NC1CCCCCCC1)c1cc(F)c(F)cc1Cl,-16.5
15,Cc1cc(C)cc(N(C(=O)CNS(=O)(=O)c2ccccc2)C(C(=O)NCc2ccccc2)c2ccc(C)o2)c1 (stereo not shown),3.98
16,O=C(COC(=O)c1ccccc1NC(=O)c1ccco1)NCC1CCCCC1,-11.9
17,O=C(OCC(=O)N1CCN(c2ccccc2)CC1)c1ccc(O)cc1O,5.77
18,CCC(C)Nc1cc(C)nc2ncnn12 (stereo not shown),53.6
